# Over roughly 18,000 sequences, “TetR repression strength (sort-seq, GFP reporter)” has its median near 0.23; the highest 2% begin near 0.68. The list shows a part of the results.
# Molecular target: TetR (class B, Tn10) (UniProt P04483)
# Test: TetR repression strength (sort-seq, GFP reporter) (relative to tetO2 = 1); higher = stronger repression
# Settings: E. coli
# Procedure, shortened: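 Escherichia coli SIG10-MAX cells carried a low-copy plasmid library in which eight operator positions were randomized between a constitutive promoter and sfGFP, and TetR was expressed constitutively. After 5 h of growth at 37 °C in LB with 50 µg/mL chloramphenicol, 10^6 cells were FACS-sorted into 13 fluorescence bins, and each bin was Illumina-sequenced. Repression strength was the top bin index plus one minus the read-weighted mean bin, divided by the value for the unaltered operator. Across three independent transformations, only library members with ≥30 reads in every replicate and a CV ≤0.5 were averaged.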
# Chain of UniProt P04483 (P04483 whole entry): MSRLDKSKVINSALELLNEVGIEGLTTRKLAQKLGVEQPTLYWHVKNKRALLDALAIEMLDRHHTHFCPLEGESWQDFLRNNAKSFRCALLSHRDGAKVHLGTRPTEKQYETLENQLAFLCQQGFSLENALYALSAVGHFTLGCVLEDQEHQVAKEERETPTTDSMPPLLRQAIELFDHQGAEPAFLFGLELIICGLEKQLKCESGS
row,Sequence,TetR repression strength
1,TCCCGGCTAGTGAGAGAGA,0.591
2,TCCCGCACAGTTCCAGAGA,0.358
3,TCCCTTTGAGTCTATGAGA,0.804
4,TCCCCGCTAGTGGCCGAGA,0.547
5,TCCCTGCCAGTTTGGGAGA,0.218
6,TCCCAAGCAGTGGGTGAGA,0.184
7,TCCCTCGTAGTTCGCGAGA,0.168
8,TCCCCGCGAGTGGTTGAGA,0.173
9,TCCCAATAAGTTCGCGAGA,0.138
10,TCCCTGTTAGTTGTGGAGA,0.264
11,TCCCAATTAGTTCAGGAGA,0.155
12,TCCCGACGAGTGCCAGAGA,0.21
13,TCCCTGTCAGTGTGCGAGA,0.333
14,TCCCGGGCAGTTCAAGAGA,0.417
15,TCCCCTATAGTGGAGGAGA,0.0642
16,TCCCCCGCAGTCACTGAGA,0.543
17,TCCCTCGAAGTAGGTGAGA,0.144
18,TCCCCTGCAGTCCTCGAGA,0.311
19,TCCCATGGAGTATTGGAGA,0.229
20,TCCCAGTAAGTTGTAGAGA,0.455
21,TCCCGCTCAGTGGTCGAGA,0.297
22,TCCCAGACAGTTGCGGAGA,0.159
23,TCCCGGTGAGTGTGAGAGA,0.148
24,TCCCGGACAGTTTGAGAGA,0.419
25,TCCCCACTAGTGGCGGAGA,0.514
26,TCCCTCCTAGTTGAAGAGA,0.185

row,Sequence,TetR repression strength
1,TCCCCGCTAGTGAGAGAGA,0.247
2,TCCCTCAAAGTGGTGGAGA,0.309
3,TCCCTTTAAGTCGGGGAGA,0.33
4,TCCCGTCGAGTATAGGAGA,0.207
5,TCCCGTGAAGTTGGCGAGA,0.105
6,TCCCGCGCAGTGGTAGAGA,0.143
7,TCCCACTTAGTGTCAGAGA,0.2
8,TCCCCGAGAGTACGGGAGA,0.343
9,TCCCATTTAGTCGGAGAGA,0.231
10,TCCCGATCAGTGGCCGAGA,0.565
11,TCCCCGCCAGTTAATGAGA,0.303
12,TCCCGTTTAGTGGGGGAGA,0.204
13,TCCCGCCGAGTTTGTGAGA,0.115
14,TCCCGGGGAGTGTTTGAGA,0.62
15,TCCCGGAAAGTCGCCGAGA,0.0987
16,TCCCGCGCAGTCAGTGAGA,0.415
17,TCCCCGCGAGTGTGAGAGA,0.259
18,TCCCTTAGAGTTTTAGAGA,0.114
19,TCCCTAGAAGTAGACGAGA,0.517
20,TCCCAGTCAGTGTGGGAGA,0.271
21,TCCCAGAGAGTGTAGGAGA,0.0985
22,TCCCCTTAAGTCCCTGAGA,0.266
23,TCCCTCTAAGTGGGCGAGA,0.24
24,TCCCTACAAGTGACCGAGA,0.322
25,TCCCAACCAGTAGACGAGA,0.263
26,TCCCAAGGAGTGTCAGAGA,0.165

row,Sequence,TetR repression strength
1,TCCCTTTTAGTAATTGAGA,0.323
2,TCCCGAATAGTGGGGGAGA,0.176
3,TCCCCACGAGTGGGCGAGA,0.207
4,TCCCCTGCAGTCTCGGAGA,0.277
5,TCCCAAACAGTCTAAGAGA,0.268
6,TCCCTTGTAGTATATGAGA,0.371
7,TCCCTTGCAGTTCGGGAGA,0.21
8,TCCCAGCGAGTATGTGAGA,0.127
9,TCCCGTGAAGTGTCAGAGA,0.186
10,TCCCTTGAAGTACGTGAGA,0.0446
11,TCCCGATGAGTCAGTGAGA,0.38
12,TCCCACTAAGTGGGAGAGA,0.231
13,TCCCATTAAGTTGGTGAGA,0.0988
14,TCCCTAGTAGTGATTGAGA,0.384
15,TCCCGTCCAGTGGGCGAGA,0.398
16,TCCCGCTAAGTGTGCGAGA,0.158
17,TCCCGACCAGTGTGCGAGA,0.163
18,TCCCAATCAGTGTATGAGA,0.259
19,TCCCAGAGAGTTAGCGAGA,0.557
20,TCCCGCAGAGTCCGCGAGA,0.224
21,TCCCTTAAAGTGATCGAGA,0.207
22,TCCCAAGCAGTCGGGGAGA,0
23,TCCCTTTCAGTCGTTGAGA,0.336
24,TCCCCGAGAGTTGGAGAGA,0.244
25,TCCCATACAGTGGAGGAGA,0.168
26,TCCCCGCGAGTTCAAGAGA,0.371

row,Sequence,TetR repression strength
1,TCCCGCGTAGTTTTGGAGA,0.333
2,TCCCGCTGAGTTGTCGAGA,0.472
3,TCCCTGCAAGTACGAGAGA,0.288
4,TCCCCTTAAGTAGGAGAGA,0.203
5,TCCCCGTGAGTAGCAGAGA,0.307
6,TCCCGGCCAGTGGAGGAGA,0.19
7,TCCCGCGAAGTACAGGAGA,0.153
8,TCCCCTCGAGTTTACGAGA,0.347
9,TCCCGTCGAGTGATGGAGA,0.0117
10,TCCCATAGAGTTGGGGAGA,0.0498
11,TCCCGCGTAGTCTTGGAGA,0.301
12,TCCCCAAAAGTTCCAGAGA,0.366
13,TCCCCAGCAGTTAGGGAGA,0.453
14,TCCCTGTTAGTAGTCGAGA,0.299
15,TCCCACGAAGTCACAGAGA,0.266
16,TCCCGGGTAGTTTACGAGA,0.00221
17,TCCCCTCAAGTGAAGGAGA,0.556
18,TCCCCGGCAGTGGTCGAGA,0.342
19,TCCCTAGGAGTAAGGGAGA,0.181
20,TCCCGTGTAGTGGAAGAGA,0.434
21,TCCCTCCCAGTACGTGAGA,0.184
22,TCCCACGAAGTGTTAGAGA,0.159
23,TCCCACTGAGTTTTGGAGA,0.63
24,TCCCCAGGAGTCGGCGAGA,0.237
25,TCCCGGGGAGTTCAGGAGA,0.0846
26,TCCCCGGCAGTGCCGGAGA,0.158

row,Sequence,TetR repression strength
1,TCCCAGTAAGTGGGCGAGA,0.19
2,TCCCTGGAAGTTCAAGAGA,0.305
3,TCCCCGCTAGTTGTCGAGA,0.104
4,TCCCTTCCAGTGATCGAGA,0.579
5,TCCCTTGGAGTTGGGGAGA,0.309
6,TCCCATAGAGTAAACGAGA,0.334
7,TCCCAATCAGTGTGTGAGA,0.101
8,TCCCTGAGAGTCGAGGAGA,0.0974
9,TCCCGGTTAGTAAGAGAGA,0.533
10,TCCCAGAAAGTTGGCGAGA,0.104
11,TCCCCTCCAGTGGGGGAGA,0.225
12,TCCCTAGGAGTTCCAGAGA,0.0889
13,TCCCTACAAGTGGGTGAGA,0.15
14,TCCCAATCAGTTAGGGAGA,0.146
15,TCCCCTATAGTATCTGAGA,0.0425
16,TCCCACGCAGTCCGTGAGA,0.0239
17,TCCCGGCGAGTGCAGGAGA,0.252
18,TCCCGTGGAGTGCATGAGA,0.24
19,TCCCGCGGAGTCGGGGAGA,0.35
20,TCCCTGATAGTTAGTGAGA,0.449
21,TCCCGAGGAGTTGTCGAGA,0.194
22,TCCCTGCAAGTAATGGAGA,0.18
23,TCCCGGTTAGTAAATGAGA,0.136
24,TCCCAACAAGTTCGAGAGA,0.128
25,TCCCCACCAGTGAAGGAGA,0.351
26,TCCCGATCAGTTCGGGAGA,0.132

row,Sequence,TetR repression strength
1,TCCCGCACAGTACAGGAGA,0.482
2,TCCCCATCAGTAGATGAGA,0.194
3,TCCCATAGAGTCAGTGAGA,0.204
4,TCCCACTTAGTAAAGGAGA,0.268
5,TCCCCTAGAGTATGCGAGA,0.184
6,TCCCACATAGTGATTGAGA,0.181
7,TCCCTCCGAGTAGTAGAGA,0.124
8,TCCCGTCAAGTAGCAGAGA,0.252
9,TCCCTGGTAGTTACGGAGA,0.184
10,TCCCCGTAAGTGCTGGAGA,0.188
11,TCCCAAGAAGTACCAGAGA,0.275
12,TCCCGATGAGTAGCTGAGA,0.373
13,TCCCGCACAGTGGCGGAGA,0.261
14,TCCCCCTCAGTGGGAGAGA,0.161
15,TCCCCATTAGTCGCGGAGA,0.241
16,TCCCGGTAAGTGCGCGAGA,0.165
17,TCCCCGGTAGTTGTAGAGA,0.178
18,TCCCATTTAGTGGTAGAGA,0.44
19,TCCCTATCAGTCCCGGAGA,0.4
20,TCCCAGGGAGTAGGTGAGA,0.153
21,TCCCGACAAGTGTCAGAGA,0.022
22,TCCCCGATAGTTTGCGAGA,0.217
23,TCCCGGCTAGTGCTCGAGA,0.149
24,TCCCTCTAAGTGAATGAGA,0.375
25,TCCCCGGCAGTCAGGGAGA,0.147
26,TCCCGTGAAGTGTTAGAGA,0.0416

row,Sequence,TetR repression strength
1,TCCCGCTAAGTGTTAGAGA,0.276
2,TCCCTGAGAGTACACGAGA,0.121
3,TCCCTGTTAGTGGTCGAGA,0.187
4,TCCCGGACAGTAAACGAGA,0.207
5,TCCCGTGGAGTTCGCGAGA,0.134
6,TCCCACACAGTTTCGGAGA,0.275
7,TCCCGTACAGTGCGGGAGA,0.248
8,TCCCTTCCAGTTGTAGAGA,0.308
9,TCCCGGGCAGTGGCTGAGA,0.202
10,TCCCCGACAGTGCGGGAGA,0.277
11,TCCCGTTAAGTGTCGGAGA,0.238
12,TCCCGTAGAGTGTCCGAGA,0.239
13,TCCCGATTAGTATCAGAGA,0.01
14,TCCCGTTAAGTAAGTGAGA,0.37
15,TCCCCACGAGTACGCGAGA,0.425
16,TCCCGGAGAGTGGTCGAGA,0.162
17,TCCCTGGAAGTGGCCGAGA,0.462
18,TCCCGCACAGTTGTCGAGA,0.125
19,TCCCAGTCAGTGCAGGAGA,0.213
20,TCCCTCTGAGTAGGTGAGA,0.218
21,TCCCGTGGAGTGCCTGAGA,0.0904
22,TCCCCCCGAGTCCCGGAGA,0.0333
23,TCCCCACCAGTGGGGGAGA,0.225
24,TCCCCTACAGTTGAAGAGA,0
25,TCCCAGGAAGTGGCCGAGA,0.178
26,TCCCATCTAGTTTAAGAGA,0.294

row,Sequence,TetR repression strength
1,TCCCCATCAGTTTAGGAGA,0.119
2,TCCCTTTCAGTTCGCGAGA,0.31
3,TCCCGGGTAGTGCACGAGA,0.183
4,TCCCTTCTAGTGGCAGAGA,0.391
5,TCCCACGCAGTGCAAGAGA,0.363
6,TCCCTAGAAGTTCCCGAGA,0.222
7,TCCCTTGAAGTTAGGGAGA,0.0968
8,TCCCTTCGAGTGATTGAGA,0.73
9,TCCCAGCAAGTATCAGAGA,0.27
10,TCCCCCACAGTTCCAGAGA,0.356
11,TCCCCTACAGTGTGGGAGA,0.16
12,TCCCAACTAGTGCAGGAGA,0.265
13,TCCCCATCAGTTCATGAGA,0.401
14,TCCCGGTAAGTTGCGGAGA,0.294
15,TCCCGGACAGTAAGGGAGA,0.25
16,TCCCGTATAGTTGGTGAGA,0.0867
17,TCCCGGATAGTTGTCGAGA,0.0359
18,TCCCGGACAGTCGAGGAGA,0.212
19,TCCCGGTCAGTGTATGAGA,0.274
20,TCCCGCTAAGTCAGGGAGA,0.138
21,TCCCCGAGAGTGATTGAGA,0.453
22,TCCCGTAGAGTAGAGGAGA,0.442

# From a collection of fitness landscapes (doi:10.1038/s41467-024-54723-y)
